The supplement of paper PMC3334620
Over roughly 33,000 sequences, “E-score (-0.5 to 0.5)” has its median near -0.032; the highest 2% begin near 0.36. This is one part of the list.

The sequences below were run against T1, Sko1 (UniProt Q02100) (assay: PBM E-score (8-mer binding enrichment) (E-score (-0.5 to 0.5)); higher = stronger / more preferred TF binding; most listed sequences are background and not binding sites). Details: protein concentration: 200 nM; construct: GST-full length.
T1 sequence: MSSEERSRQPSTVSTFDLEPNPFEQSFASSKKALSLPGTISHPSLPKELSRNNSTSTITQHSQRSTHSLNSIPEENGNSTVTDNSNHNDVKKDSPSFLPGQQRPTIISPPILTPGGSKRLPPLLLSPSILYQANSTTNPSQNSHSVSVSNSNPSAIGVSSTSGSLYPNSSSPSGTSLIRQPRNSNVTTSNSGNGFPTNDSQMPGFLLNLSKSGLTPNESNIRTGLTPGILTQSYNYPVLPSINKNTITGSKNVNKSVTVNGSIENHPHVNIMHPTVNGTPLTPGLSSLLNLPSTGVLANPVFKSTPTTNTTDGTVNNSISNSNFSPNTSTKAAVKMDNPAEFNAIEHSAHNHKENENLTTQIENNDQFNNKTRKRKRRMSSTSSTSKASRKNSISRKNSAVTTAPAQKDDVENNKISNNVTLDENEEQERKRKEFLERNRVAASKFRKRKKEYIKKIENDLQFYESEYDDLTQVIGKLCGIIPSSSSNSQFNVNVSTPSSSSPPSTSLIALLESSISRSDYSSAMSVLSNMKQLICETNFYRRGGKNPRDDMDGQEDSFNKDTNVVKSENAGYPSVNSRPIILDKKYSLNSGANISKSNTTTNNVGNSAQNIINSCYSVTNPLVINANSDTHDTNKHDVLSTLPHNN
Method in brief: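 Masliner-normalised scans of fluorescent anti-GST signal were the basis for scoring. That signal came from GST-tagged yeast transcription factors applied at about 100-200 nM to double-stranded universal all-10-mer Agilent arrays on fresh or once-stripped slides. Each ungapped eight-base word, pooled with its reverse complement, received an E-score from the Universal PBM Analysis Suite.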

Row | Sequence | PBM E-score
1 | AGGCCAGA | -0.358
2 | CATTTAAA | 0.178
3 | CCACCGGG | -0.281
4 | GAATCATA | 0.204
5 | AAAAGTGC | 0.0726
6 | CATCACTA | 0.296
7 | CATAGCAC | 0.109
8 | CGGTGACA | -0.0125
9 | AACATGTG | 0.134
10 | CCCCGACG | -0.0246
11 | CTAAACAG | -0.091
12 | AACCCGCG | -0.0555
13 | CTAAAGAG | -0.0278
14 | CTAGACGC | -0.00436
15 | CGTTACCA | 0.186
16 | ATTACTTA | 0.201
17 | CTTATTTC | 0.228
18 | CCGTACCA | -0.118
19 | GGCAGGAC | -0.323
20 | GAACGACA | 0.126
21 | GCCTCCCA | -0.282
22 | CATAATGC | 0.144

Row | Sequence | PBM E-score
23 | CACTGTAC | -0.176
24 | ACGTTGCT | 0.334
25 | AGTTTTTG | 0.0768
26 | GATTTACA | 0.0615
27 | GCACCGAC | -0.0783
28 | CACTACGA | 0.265
29 | GAAGCTGA | 0.0452
30 | AGATAACG | 0.292
31 | GGATTAGA | -0.115
32 | TCGATTCA | 0.0916
33 | CCTCATCA | 0.129
34 | ATCTCTCG | -0.0248
35 | GTTACAGA | -0.0825
36 | ATACGAAT | 0.286
37 | CCCACGCC | -0.127
38 | ACCGTTAC | 0.0271
39 | GGGAATTA | 0.0914
40 | GACGCCTC | 0.135
41 | CACTCTAA | -0.00829
42 | CATTATAG | 0.0516
43 | GCAGTTAC | 0.17
44 | GTAAAGAA | 0.222

Row | Sequence | PBM E-score
45 | CGAATGAC | 0.351
46 | CGTAGCTC | 0.247
47 | AAGAAGGC | -0.144
48 | CATTTAAG | 0.0986
49 | CACCCATG | -0.0784
50 | CACTACTA | -0.0403
51 | AAAGGCAA | 0.102
52 | ATTCGCAA | 0.117
53 | GGGGTCTA | -0.219
54 | GTATCCCA | -0.14
55 | GCATAGCA | 0.122
56 | AAGTTTAT | 0.0793
57 | AGGTGCAC | 0.0724
58 | GACCTTGC | -0.376
59 | ACAGAAAA | 0.162
60 | CCGCAAGA | -0.217
61 | AGATCATA | 0.231
62 | AAACTCCT | -0.276
63 | AATATAGA | 0.274
64 | AGTGCGTG | 0.152
65 | GCATCGCC | -0.164
66 | GACCGAAC | -0.0636

Row | Sequence | PBM E-score
67 | ATGAGACA | 0.0161
68 | GGCAAAGA | 0.0272
69 | GAGTGGCC | -0.248
70 | AATGGTTC | 0.0708
71 | ACACGTCG | 0.335
72 | AACCGAGT | -0.234
73 | CAAAGCTG | -0.15
74 | AAGGTTAT | -0.141
75 | CCTGCGTA | 0.315
76 | AACTGTTA | 0.119
77 | CAATAAGC | -0.134
78 | AGTAGTAC | 0.173
79 | GGCATACC | -0.189
80 | ATATGAGC | -0.029
81 | TAACCCAA | 0.0819
82 | CGTCGAGC | 0.0683
83 | TCATGGCA | -0.0752
84 | CCCAATTC | 0.0482
85 | AGTAAGGA | -0.143
86 | GGCAGGGA | -0.262
87 | ACGCGACC | 0.177
88 | CAATCGCG | -0.0866

Row | Sequence | PBM E-score
89 | GTGACTTA | 0.211
90 | ACGCCTGA | 0.15
91 | CATTTGGC | -0.00907
92 | TATGCGCA | 0.114
93 | AAGGTAAG | -0.00253
94 | ATGACTTC | 0.0498
95 | GACGGCAA | 0.013
96 | CGCAAGCC | 0.0906
97 | ACTTTCCT | 0.0188
98 | ATTTCTTG | 0.164
99 | AAGTCCAT | -0.166
100 | GACGCAAC | 0.321
101 | ATCCATCC | -0.00565
102 | ACAAGGTC | -0.171
103 | CATCATGC | 0.304
104 | AAGCGGAA | -0.0292
105 | GTAAGCCA | -0.0679
106 | GCACTTCA | 0.0577
107 | CATCACCG | 0.0964
108 | CGGATCTC | -0.185
109 | CATATAAA | 0.224
110 | TCTGAAAA | -0.0416
